By IC50 is meant the dose at which the fit gives 50% viability; fits outside the tested doses are given as limits. AUC, from the same fit, is the share of area under the viability curve across the 256-fold dose range: 1 means no effect, lower means more sensitive. For some assays here: A top dose marked as inferred was calculated from the reported fits.
How the values were obtained:
Assay in all cases: Viability of human cancer cell lines after 72 h of drug (GDSC screen)
Paclitaxel = compound: CC(=O)O[C@H]1C(=O)[C@@]2(C)[C@H]([C@H](OC(=O)c3ccccc3)[C@]3(O)C[C@H](OC(=O)[C@H](O)[C@@H](NC(=O)c4ccccc4)c4ccccc4)C(C)=C1C3(C)C)[C@]1(OC(C)=O)CO[C@@H]1C[C@@H]2O [Paclitaxel]; conditions: top dose 0.1024 µM
Protocol: (§1)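 Human cancer cell lines in 384-well plates, medium with 10% serum, drug for 72 h over a 256-fold dose range (nine 2-fold or five 4-fold steps up to the top dose). Adherent lines were fixed and stained with the nucleic acid dye Syto60, suspension lines read with resazurin; signal relative to control wells, capped at 0 and 100%. One two-parameter sigmoid per drug and line, fitted in a mixed model over all curves with the slope shared within a line.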

Bortezomib = compound: CC(C)C[C@H](NC(=O)[C@H](Cc1ccccc1)NC(=O)c1cnccn1)B(O)O [Bortezomib]; conditions: top dose 0.02 µM
Protocol: as §1

Obatoclax mesylate = compound: COC1=CC(c2cc3ccccc3[nH]2)=N/C1=C\c1[nH]c(C)cc1C [Obatoclax mesylate]; conditions: top dose 16 µM
Protocol: as §1

CP724714 = compound: COCC(=O)NC/C=C/c1ccc2ncnc(Nc3ccc(Oc4ccc(C)nc4)c(C)c3)c2c1 [CP724714]; conditions: top dose 10.24 µM; top dose inferred
Protocol: as §1

STF-62247 = compound: Cc1cccc(Nc2nc(-c3ccncc3)cs2)c1 [STF-62247]; conditions: top dose 10.24 µM; top dose inferred
Protocol: as §1

CX-5461 = compound: Cc1cnc(CNC(=O)c2c(=O)c3ccc(N4CCCN(C)CC4)nc3n3c2sc2ccccc23)cn1 [CX-5461]; conditions: top dose 10.24 µM; top dose inferred
Protocol: as §1

Row | Cell Line | AUC (Paclitaxel) | IC50 (Paclitaxel) [nM] | AUC (Bortezomib) | IC50 (Bortezomib) [nM] | AUC (Obatoclax mesylate) | IC50 (Obatoclax mesylate) [nM] | AUC (CP724714) | IC50 (CP724714) [nM] | AUC (STF-62247) | IC50 (STF-62247) [nM] | AUC (CX-5461) | IC50 (CX-5461) [nM]
1 | REH (B-cell leukaemia, suspension) | 0.968 | > 102 | 0.924 | > 20 | 0.087 | < 62.5 | 0.986 | > 10200 | 0.942 | > 10200 | 0.243 | 120
2 | RF-48 (stomach, adherent) | 0.616 | 13.9 | 0.631 | 3.02 | 0.331 | 319 | 0.975 | > 10200 | 0.937 | > 10200 | 0.652 | 1790
3 | RH-1 (rhabdomyosarcoma, adherent) | 0.778 | 34.5 | 0.941 | > 20 | 0.323 | 353 | 0.983 | > 10200 | 0.981 | > 10200 | 0.24 | 134
4 | ROS-50 (B-cell leukaemia, suspension) | 0.926 | > 102 | 0.739 | 7.44 | 0.631 | 2550 | 0.982 | > 10200 | 0.934 | > 10200 | 0.862 | > 10200
5 | RPMI-6666 (Hodgkin lymphoma, suspension) | 0.535 | 8.13 | 0.691 | 4.83 | 0.242 | 152 | 0.976 | > 10200 | 0.789 | 5550 | 0.62 | 1470
6 | RPMI-8402 (T-cell lymphoblastic leukaemia, suspension) | 0.643 | 14.8 | 0.591 | 2.12 | 0.098 | 66.8 | 0.982 | > 10200 | 0.892 | 8660 | 0.225 | 120
7 | RPMI-8866 (chronic myeloid leukaemia, suspension) | 0.789 | 41.7 | 0.684 | 3.92 | 0.246 | 198 | 0.972 | > 10200 | 0.959 | > 10200 | 0.494 | 616
8 | RS4-11 (leukaemia, suspension) | 0.53 | 7.65 | 0.908 | > 20 | 0.173 | 116 | 0.988 | > 10200 | 0.983 | > 10200 | 0.16 | 66
9 | RXF393 (kidney, adherent) | 0.606 | 14 | 0.444 | 0.828 | 0.588 | 1910 | 0.944 | > 10200 | 0.922 | > 10200 | 0.848 | > 10200
10 | Raji (Burkitt lymphoma, suspension) | 0.893 | > 102 | 0.662 | 3.41 | 0.619 | 2080 | 0.989 | > 10200 | 0.978 | > 10200 | 0.889 | > 10200
11 | Ramos-2G6-4C10 (Burkitt lymphoma, suspension) | 0.633 | 14 | 0.429 | 0.822 | 0.199 | 153 | 0.955 | > 10200 | 0.991 | > 10200 | 0.637 | 1440
12 | SBC-1 (small cell lung carcinoma, suspension) | 0.781 | 40.9 | 0.656 | 3.33 | 0.672 | 2960 | 0.986 | > 10200 | 0.988 | > 10200 | 0.757 | 3410
13 | SCC-3 (B-cell lymphoma, suspension) | 0.625 | 12.9 | 0.628 | 2.55 | 0.255 | 254 | 0.991 | > 10200 | 0.994 | > 10200 | 0.719 | 2180
14 | SCC-15 (head and neck, adherent) | 0.939 | > 102 | 0.963 | > 20 | 0.171 | 66.2 | 0.958 | > 10200 | 0.976 | > 10200 | 0.912 | > 10200
15 | SCH (stomach, adherent) | 0.934 | > 102 | 0.927 | > 20 | 0.961 | > 16000 | 0.981 | > 10200 | 0.988 | > 10200 | 0.988 | > 10200
16 | SF126 (glioma, adherent) | 0.842 | 77.4 | 0.332 | 0.414 | 0.296 | 256 | 0.986 | > 10200 | 0.986 | > 10200 | 0.89 | > 10200
17 | SF268 (glioma, adherent) | 0.551 | 8.9 | 0.501 | 1.26 | 0.159 | 80.9 | 0.978 | > 10200 | 0.978 | > 10200 | 0.777 | 4430
18 | SF539 (glioma, adherent) | 0.731 | 26.8 | 0.718 | 4.8 | 0.224 | 174 | 0.99 | > 10200 | 0.954 | > 10200 | 0.99 | > 10200
19 | SH-4 (melanoma, adherent) | 0.525 | 7.79 | 0.226 | 0.123 | 0.071 | < 62.5 | 0.96 | > 10200 | 0.969 | > 10200 | 0.97 | > 10200
20 | SHP-77 (small cell lung carcinoma, semi-adherent) | 0.96 | > 102 | 0.641 | 2.93 | 0.588 | 1690 | 0.896 | > 10200 | 0.984 | > 10200 | 0.813 | 4790
21 | SIG-M5 (acute myeloid leukaemia, suspension) | 0.444 | 4.67 | 0.686 | 3.57 | 0.075 | 70.4 | 0.957 | > 10200 | 0.979 | > 10200 | 0.348 | 273

Row | Cell Line | AUC (Paclitaxel) | IC50 (Paclitaxel) [nM] | AUC (Bortezomib) | IC50 (Bortezomib) [nM] | AUC (Obatoclax mesylate) | IC50 (Obatoclax mesylate) [nM] | AUC (CP724714) | IC50 (CP724714) [nM] | AUC (STF-62247) | IC50 (STF-62247) [nM] | AUC (CX-5461) | IC50 (CX-5461) [nM]
22 | SIMA (neuroblastoma, adherent) | 0.835 | 80.1 | 0.865 | > 20 | 0.421 | 590 | 0.97 | > 10200 | 0.985 | > 10200 | 0.486 | 584
23 | SJSA-1 (bone, adherent) | 0.671 | 20.5 | 0.577 | 2.09 | 0.238 | 156 | 0.983 | > 10200 | 0.984 | > 10200 | 0.903 | > 10200
24 | SK-ES-1 (Ewing sarcoma, semi-adherent) | 0.625 | 14.5 | 0.853 | 17.2 | 0.194 | 114 | 0.959 | > 10200 | 0.947 | > 10200 | 0.3 | 168
25 | SK-LMS-1 (soft tissue, adherent) | 0.449 | 4.69 | 0.443 | 0.883 | 0.234 | 177 | 0.981 | > 10200 | 0.966 | > 10200 | 0.431 | 418
26 | SK-MEL-1 (melanoma, suspension) | 0.976 | > 102 | 0.926 | > 20 | 0.855 | 10100 | 0.983 | > 10200 | 0.98 | > 10200 | 0.993 | > 10200
27 | SK-MM-2 (myeloma, suspension) | 0.982 | > 102 | 0.479 | – | 0.354 | 387 | 0.984 | > 10200 | 0.936 | > 10200 | 0.73 | 2980
28 | SK-N-DZ (neuroblastoma, adherent) | 0.851 | 76.7 | 0.595 | 2.27 | 0.512 | 1080 | 0.958 | > 10200 | 0.97 | > 10200 | 0.894 | > 10200
29 | SK-PN-DW (Ewing sarcoma, adherent) | 0.514 | 7.01 | 0.591 | 2.24 | 0.165 | 90.5 | 0.978 | > 10200 | 0.982 | > 10200 | 0.521 | 731
30 | SK-UT-1 (soft tissue, adherent) | 0.409 | 3.68 | 0.199 | 0.178 | 0.209 | 154 | 0.989 | > 10200 | 0.989 | > 10200 | 0.974 | > 10200
31 | SLVL (B-cell lymphoma, suspension) | 0.674 | 20.2 | 0.51 | 1.34 | 0.509 | 1060 | 0.982 | > 10200 | 0.985 | > 10200 | 0.667 | 1930
32 | SNB75 (glioma, adherent) | 0.624 | 16.4 | 0.509 | 1.34 | 0.448 | 678 | 0.978 | > 10200 | 0.97 | > 10200 | 0.684 | 2670
33 | SNU-C1 (large intestine, suspension) | 0.853 | > 102 | 0.824 | > 20 | 0.855 | > 16000 | 0.98 | > 10200 | 0.98 | > 10200 | 0.969 | > 10200
34 | ST486 (Burkitt lymphoma, suspension) | 0.595 | 11.3 | 0.728 | 5.07 | 0.061 | < 62.5 | 0.983 | > 10200 | 0.854 | 6660 | 0.572 | 985
35 | SU-DHL-1 (anaplastic large cell lymphoma, suspension) | 0.974 | > 102 | 0.678 | 3.37 | 0.529 | 1180 | 0.995 | > 10200 | 0.992 | > 10200 | 0.906 | 6840
36 | SU-DHL-4 (B-cell lymphoma, suspension) | 0.554 | 8.63 | 0.441 | 0.903 | 0.031 | < 62.5 | 0.997 | > 10200 | 0.995 | > 10200 | 0.927 | 8030
37 | SU-DHL-6 (B-cell lymphoma, suspension) | 0.356 | 2.85 | 0.341 | 0.512 | 0.17 | 148 | 0.974 | > 10200 | 0.902 | 7180 | 0.952 | > 10200
38 | SU-DHL-8 (B-cell lymphoma, suspension) | 0.662 | 17.4 | 0.431 | 0.821 | 0.056 | < 62.5 | 0.902 | > 10200 | 0.981 | > 10200 | 0.692 | 2120
39 | SU-DHL-16 (B-cell lymphoma, suspension) | 0.61 | 11.8 | 0.44 | 0.895 | 0.103 | 97.2 | 0.969 | > 10200 | 0.991 | > 10200 | 0.878 | 5720
40 | SUP-HD1 (Hodgkin lymphoma, suspension) | 0.817 | 54 | 0.442 | 0.875 | 0.389 | 504 | 0.974 | > 10200 | 0.963 | > 10200 | 0.839 | 6500
41 | SUP-M2 (anaplastic large cell lymphoma, suspension) | 0.426 | 4.21 | 0.624 | 2.52 | 0.263 | 258 | 0.961 | > 10200 | 0.843 | 4880 | 0.787 | 3360
42 | SUP-T1 (T-cell lymphoblastic leukaemia, suspension) | 0.99 | > 102 | 0.953 | > 20 | 0.244 | 199 | 0.975 | > 10200 | 0.975 | > 10200 | 0.788 | 4040
